# Laboratory results published in the supplement of paper PMC8728848.
# The list shows a part of the results.
# Assays:
# Assay in all cases: glycan array binding signal (z-score within array); higher = stronger binding
# Settings in all cases: glycan notation: IUPAC condensed, linker removed
# Neu5Ac(a2-3)Gal(b1-4)Glc = biological target: Neu5Ac(a2-3)Gal(b1-4)Glc
# How it was run: (§1)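 Arrays were curated from the Consortium for Functional Glycomics database, 3228 in total, and kept only where the protein sequence was available. Binding is expressed as a within-array Z-score. This score was averaged across arrays of the same protein sequence at different concentrations or buffers and across linkers, and negative values can be read as non-binding.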
# [1] = biological target: Neu5Ac(a2-3)Gal(b1-4)GlcNAc
# How it was run: as §1
# [2] = biological target: Neu5Ac(a2-3)Gal(b1-4)GlcNAc(b1-2)Man
# How it was run: as §1
# [3] = biological target: Neu5Ac(a2-3)Gal(b1-4)GlcNAc(b1-2)Man(a1-3)[GlcNAc(b1-4)][Neu5Ac(a2-3)Gal(b1-4)GlcNAc(b1-2)Man(a1-6)]Man(b1-4)GlcNAc(b1-4)GlcNAc
# How it was run: as §1
# [4] = biological target: Neu5Ac(a2-3)Gal(b1-4)GlcNAc(b1-2)Man(a1-3)[Neu5Ac(a2-3)Gal(b1-4)GlcNAc(b1-2)Man(a1-6)]Man(b1-4)GlcNAc(b1-4)GlcNAc
# How it was run: as §1
# [5] = biological target: Neu5Ac(a2-3)Gal(b1-4)GlcNAc(b1-2)Man(a1-3)[Neu5Ac(a2-3)Gal(b1-4)GlcNAc(b1-2)Man(a1-6)]Man(b1-4)GlcNAc(b1-4)[Fuc(a1-6)]GlcNAc
# How it was run: as §1
# [6] = biological target: Neu5Ac(a2-3)Gal(b1-4)GlcNAc(b1-2)Man(a1-3)[Neu5Ac(a2-6)Gal(b1-4)GlcNAc(b1-2)Man(a1-6)]Man(b1-4)GlcNAc(b1-4)GlcNAc
# How it was run: as §1
# [7] = biological target: Neu5Ac(a2-3)Gal(b1-4)GlcNAc(b1-2)[Neu5Ac(a2-3)Gal(b1-4)GlcNAc(b1-4)]Man(a1-3)[GlcNAc(b1-4)][Neu5Ac(a2-3)Gal(b1-4)GlcNAc(b1-2)[Neu5Ac(a2-3)Gal(b1-4)GlcNAc(b1-6)]Man(a1-6)]Man(b1-4)GlcNAc(b1-4)GlcNAc
# How it was run: as §1
# [8] = biological target: Neu5Ac(a2-3)Gal(b1-4)GlcNAc(b1-2)[Neu5Ac(a2-3)Gal(b1-4)GlcNAc(b1-4)]Man(a1-3)[GlcNAc(b1-4)][Neu5Ac(a2-3)Gal(b1-4)GlcNAc(b1-4)Man(a1-6)]Man(b1-4)GlcNAc(b1-4)GlcNAc
# How it was run: as §1
# [9] = biological target: Neu5Ac(a2-3)Gal(b1-4)GlcNAc(b1-2)[Neu5Ac(a2-3)Gal(b1-4)GlcNAc(b1-6)]Man(a1-6)[Neu5Ac(a2-3)Gal(b1-4)GlcNAc(b1-2)Man(a1-3)]Man(b1-4)GlcNAc(b1-4)GlcNAc
# How it was run: as §1
# [10] = biological target: Neu5Ac(a2-3)Gal(b1-4)GlcNAc(b1-2)[Neu5Ac(a2-3)Gal(b1-4)GlcNAc(b1-6)]Man(a1-6)[Neu5Ac(a2-3)Gal(b1-4)GlcNAc(b1-2)Man(a1-3)][GlcNAc(b1-4)]Man(b1-4)GlcNAc(b1-4)GlcNAc
# How it was run: as §1
# [11] = biological target: Neu5Ac(a2-3)Gal(b1-4)GlcNAc(b1-3)Gal
# How it was run: as §1
# [12] = biological target: Neu5Ac(a2-3)Gal(b1-4)GlcNAc(b1-3)Gal(b1-3)GlcNAc
# How it was run: as §1
# [13] = biological target: Neu5Ac(a2-3)Gal(b1-4)GlcNAc(b1-3)Gal(b1-4)GlcNAc
# How it was run: as §1
# [14] = biological target: Neu5Ac(a2-3)Gal(b1-4)GlcNAc(b1-3)Gal(b1-4)GlcNAc(b1-2)Man(a1-3)[Neu5Ac(a2-3)Gal(b1-4)GlcNAc(b1-3)Gal(b1-4)GlcNAc(b1-2)Man(a1-6)]Man(b1-4)GlcNAc(b1-4)GlcNAc
# How it was run: as §1
# [15] = biological target: Neu5Ac(a2-3)Gal(b1-4)GlcNAc(b1-3)Gal(b1-4)GlcNAc(b1-3)Gal(b1-4)GlcNAc
# How it was run: as §1
# [16] = biological target: Neu5Ac(a2-3)Gal(b1-4)GlcNAc(b1-3)Gal(b1-4)GlcNAc(b1-3)Gal(b1-4)GlcNAc(b1-2)Man(a1-3)[Neu5Ac(a2-3)Gal(b1-4)GlcNAc(b1-3)Gal(b1-4)GlcNAc(b1-3)Gal(b1-4)GlcNAc(b1-2)Man(a1-6)]GalNAc
# How it was run: as §1
# [17] = biological target: Neu5Ac(a2-3)Gal(b1-4)GlcNAc(b1-3)Gal(b1-4)GlcNAc(b1-3)GalNAc
# How it was run: as §1
# [18] = biological target: Neu5Ac(a2-3)Gal(b1-4)GlcNAc(b1-3)Gal(b1-4)GlcNAc(b1-3)[Neu5Ac(a2-3)Gal(b1-4)GlcNAc(b1-3)Gal(b1-4)GlcNAc(b1-6)]GalNAc
# How it was run: as §1
# [19] = biological target: Neu5Ac(a2-3)Gal(b1-4)GlcNAc(b1-3)Gal(b1-4)GlcNAc(b1-6)[Gal(b1-3)]GalNAc
# How it was run: as §1
# [20] = biological target: Neu5Ac(a2-3)Gal(b1-4)GlcNAc(b1-3)Gal(b1-4)[Fuc(a1-3)]GlcNAc
# How it was run: as §1
# [21] = biological target: Neu5Ac(a2-3)Gal(b1-4)GlcNAc(b1-3)GalNAc
# How it was run: as §1
# [22] = biological target: Neu5Ac(a2-3)Gal(b1-4)GlcNAc(b1-3)[Neu5Ac(a2-3)Gal(b1-4)GlcNAc(b1-6)]GalNAc
# How it was run: as §1
# [23] = biological target: Neu5Ac(a2-3)Gal(b1-4)GlcNAc(b1-6)GalNAc
# How it was run: as §1
# [24] = biological target: Neu5Ac(a2-3)Gal(b1-4)GlcNAc(b1-6)[Gal(b1-3)]GalNAc
# How it was run: as §1
# [25] = biological target: Neu5Ac(a2-3)Gal(b1-4)GlcNAc(b1-6)[Neu5Ac(a2-3)Gal(b1-3)]GalNAc
# How it was run: as §1
# [26] = biological target: Neu5Ac(a2-3)Gal(b1-4)GlcNAc6S
# How it was run: as §1
# [27] = biological target: Neu5Ac(a2-3)Gal(b1-4)[Fuc(a1-3)]GlcNAc
# How it was run: as §1
# [28] = biological target: Neu5Ac(a2-3)Gal(b1-4)[Fuc(a1-3)]GlcNAc(b1-2)Man
# How it was run: as §1
# [29] = biological target: Neu5Ac(a2-3)Gal(b1-4)[Fuc(a1-3)]GlcNAc(b1-3)Gal
# How it was run: as §1
# [30] = biological target: Neu5Ac(a2-3)Gal(b1-4)[Fuc(a1-3)]GlcNAc(b1-3)Gal(b1-4)GlcNAc
# How it was run: as §1
# [31] = biological target: Neu5Ac(a2-3)Gal(b1-4)[Fuc(a1-3)]GlcNAc(b1-3)Gal(b1-4)[Fuc(a1-3)]GlcNAc(b1-3)Gal(b1-4)[Fuc(a1-3)]GlcNAc
# How it was run: as §1
# [32] = biological target: Neu5Ac(a2-3)Gal(b1-4)[Fuc(a1-3)]GlcNAc(b1-3)GalNAc
# How it was run: as §1
# [33] = biological target: Neu5Ac(a2-3)Gal(b1-4)[Fuc(a1-3)]GlcNAc(b1-6)[Gal(b1-3)]GalNAc
# How it was run: as §1
# [34] = biological target: Neu5Ac(a2-3)Gal(b1-4)[Fuc(a1-3)]GlcNAc(b1-6)[Neu5Ac(a2-3)Gal(b1-3)]GalNAc
# How it was run: as §1
# [35] = biological target: Neu5Ac(a2-3)Gal(b1-4)[Fuc(a1-3)]GlcNAc6S
# How it was run: as §1
# [36] = biological target: Neu5Ac(a2-3)Gal6S(b1-4)GlcNAc
# How it was run: as §1
# [37] = biological target: Neu5Ac(a2-3)Gal6S(b1-4)[Fuc(a1-3)]GlcNAc
# How it was run: as §1
binder,measurement,setting,value
GSL-I-B4 (Griffonia simplicifolia) (protein) NFWSDVEDSIIFQGDANTTAGTLQLCKTNQYGTPLQWSAGRALYSDPVQLWDNKTESVASFYTEFTFFLKITGNGPADGLAFFLAPPDSDVKDAGEYLGLFNKSTATQPSKNQVVAVEFDTWTNPNFPEPSYRHIGINVNSIVSVATKRWEDSDIFSGKIATARISYDGSAEILTVVLSYPDGSDYILSHSVDMRQNLPESVRVGISASTGNNQFLTVYILSWRFSSNLQSTSVKAAMEPEITRTVV,glycan array binding signal (z-score),Neu5Ac(a2-3)Gal(b1-4)Glc,-0.173
same,glycan array binding signal (z-score),[1],-0.189
same,glycan array binding signal (z-score),[2],-0.197
same,glycan array binding signal (z-score),[3],-0.216
same,glycan array binding signal (z-score),[4],-0.131
same,glycan array binding signal (z-score),[5],-0.214
same,glycan array binding signal (z-score),[6],-0.208
same,glycan array binding signal (z-score),[7],-0.163
same,glycan array binding signal (z-score),[8],-0.152
same,glycan array binding signal (z-score),[9],-0.164
same,glycan array binding signal (z-score),[10],-0.24
same,glycan array binding signal (z-score),[11],-0.112
same,glycan array binding signal (z-score),[12],-0.21
same,glycan array binding signal (z-score),[13],-0.204
same,glycan array binding signal (z-score),[14],0.149
same,glycan array binding signal (z-score),[15],-0.2
same,glycan array binding signal (z-score),[16],0.146
same,glycan array binding signal (z-score),[17],-0.238
same,glycan array binding signal (z-score),[18],-0.167
same,glycan array binding signal (z-score),[19],-0.059
same,glycan array binding signal (z-score),[20],-0.199
same,glycan array binding signal (z-score),[21],-0.228
same,glycan array binding signal (z-score),[22],-0.164
same,glycan array binding signal (z-score),[23],-0.161
same,glycan array binding signal (z-score),[24],-0.23
same,glycan array binding signal (z-score),[25],-0.212
same,glycan array binding signal (z-score),[26],-0.193
same,glycan array binding signal (z-score),[27],-0.175
same,glycan array binding signal (z-score),[28],-0.187
same,glycan array binding signal (z-score),[29],-0.207
same,glycan array binding signal (z-score),[30],-0.174
same,glycan array binding signal (z-score),[31],-0.15
same,glycan array binding signal (z-score),[32],-0.152
same,glycan array binding signal (z-score),[33],-0.059
same,glycan array binding signal (z-score),[34],-0.109
same,glycan array binding signal (z-score),[35],-0.176
same,glycan array binding signal (z-score),[36],-0.143
same,glycan array binding signal (z-score),[37],-0.238
